The list shows a part of the results.

The chains are these.
T1: UNK ZnF1-6 (called full-length) (human, UniProt Q9C0B0 30-357)
T1 sequence: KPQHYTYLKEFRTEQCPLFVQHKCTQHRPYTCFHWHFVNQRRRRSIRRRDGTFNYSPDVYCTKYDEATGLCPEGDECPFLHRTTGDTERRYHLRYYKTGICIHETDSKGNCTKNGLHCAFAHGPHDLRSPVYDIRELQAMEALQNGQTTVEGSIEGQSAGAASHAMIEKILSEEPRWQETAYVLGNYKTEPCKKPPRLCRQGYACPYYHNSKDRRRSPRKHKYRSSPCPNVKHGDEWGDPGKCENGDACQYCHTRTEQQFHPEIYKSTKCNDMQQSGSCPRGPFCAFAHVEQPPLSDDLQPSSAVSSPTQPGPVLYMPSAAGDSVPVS

B1: chr1:193013303:193013404:-|3pUTR|ENSG00000116750|unk|FALSE|unique (ssRNA)
RNA: GGGAGUUCUACAGUCCGACGAUCAAACCACUCUAGCUAUUUGAAGAGGAAUGCAGAUUUAUAUUGGGAGUUUUGAAACUACAUAGUUUCUUACAAAAUCAUUGGAAGGUUUGGAGGAGCGGUUUCAAGCUUAAGUCUCCAGAGCAACAGAGGAUUGAGCAUCA
B2: chr3:9371215:9371332:+|CDS|ENSG00000134077|unk|total|mutant (ssRNA)
RNA: GGGAGUUCUACAGUCCGACGAUCUGGACAAGAAGUCAAAAUCGAUCAGAGAAAUGUUAAAAAAGAGUUCACCCGCCAUGCUUCCGAUUCUCAUAUCUCCGAUUAUUAUGAAAAUCCAGCCAUCAAAGAGGAUGUAUCAACAUUCAACAGAGGAUUGAGCAUCA
B3: ENSG00000198589:be:win_3401|CDS|ENSG00000198589|bound_else_gene|NA|bound_elsewhere_windowed (ssRNA)
RNA: GGGAGUUCUACAGUCCGACGAUCUGUCUCCAGCUGCAUCUGAAGCCGGUGAAAAACUGGACAUGUUUGGUAAUGAUGACAAAUUAAUAUUUCAAGAAGGAAAACCUGUUACUGAAAAGCAAACUGAUACUGAAACUCAAGAUUCAACAGAGGAUUGAGCAUCA
B4: chr3:58172026:58172127:+|3pUTR|ENSG00000136068|msi1|total|mutant (ssRNA)
RNA: GGGAGUUCUACAGUCCGACGAUCGGCAGACCUUCCGGUUUUGCUGCUCCGUCCUGAGGAAGUGGCCACUCUUGUGGCAGGUGCCGUAUCUGGGGCGAGUGUUGGGGGUAAAAGCCCACCCUACAGAAAGUGGAACAGCCCGGACAACAGAGGAUUGAGCAUCA
B5: chr5:123575802:123575904:+|CDS|ENSG00000151292|unk|total|mutant (ssRNA)
RNA: GGGAGUUCUACAGUCCGACGAUCACCUGAGAACUUCUUAACCGGACGACCAGGAAACAAAACCCAGCAAGUUAUUCACAUUACCGAUUUUGGUUUGGCAAAGGAAUAUAUUGAUCCGGAGACAAAGAAACACAUACCAUACAGCAACAGAGGAUUGAGCAUCA
B6: chr8:116846039:116846140:-|3pUTR|ENSG00000164754|msi1|total|mutant (ssRNA)
RNA: GGGAGUUCUACAGUCCGACGAUCACAUUCAAUAUGAUGUGCCUGUAAACCAAGGAGUUUUCCCCGUUUGUAAAAAGACAUUGCCGAUAAUUGAAUGUUUGAUUUCCGAAAGGUCAUCCGUUUCUUGUUACACAUUUUGUCCGUCAACAGAGGAUUGAGCAUCA
B7: chr4:152882748:152882856:+|CDS|ENSG00000164144|unk|FALSE|unique (ssRNA)
RNA: GGGAGUUCUACAGUCCGACGAUCCAGAAACUGCUGGCUAAAAAUGGAGAGACUCUUCUUGGGGCCAUUAAUUUUUUCAUUGCUAGUGUGAACACUUUGGUGAAUAAAACCAUUGAAGAUACAUUAAUGACUGUGAAACAGUAUCAACAGAGGAUUGAGCAUCA
B8: chr12:106239179:106239280:-|CDS|ENSG00000136026|msi1|FALSE|unique (ssRNA)
RNA: GGGAGUUCUACAGUCCGACGAUCGGACCAAGCCCAGGCCGCCCGUCUGCCUCCUCAGGACUUCCUGGACAGACUUUCUUCUCUAGACAACCUGAAAGCCUCAGUCAGCCAAGUGGAGGCGGACUUGAAAAUGCUCAGGACUGCCAACAGAGGAUUGAGCAUCA
B9: ENSG00000160710:stop:overlap|stop_codon|ENSG00000160710|stop_codon|NA|stop_codon (ssRNA)
RNA: GGGAGUUCUACAGUCCGACGAUCGCUAUGGGAACUGGAUUAGCAAACCCCAGGAGGAAAAGAACUUUUAUCUCUGCCCAGUAUAGUAUGCUCCAGUGACAGAUGGAUUAGGGUGUGUCAUACUAGGGUGUGAGAGAGGUAGGUCAACAGAGGAUUGAGCAUCA
B10: chr3:15667380:15667481:-|3pUTR|ENSG00000206560|msi1|total|mutant (ssRNA)
RNA: GGGAGUUCUACAGUCCGACGAUCUAUACAUAAAAGAUGACAUCUGAAAUAUCUGAUGUGUAUUAUAAUACCAGCUUCUGCUCCCGAACUACUUUGGGUGAAAUGGUGGUAACCGCAAAUGACCUCCUUUAACAAGACACUCAUCAACAGAGGAUUGAGCAUCA
B11: ENSG00000107863:be:win_1601|CDS|ENSG00000107863|bound_else_gene|NA|bound_elsewhere_windowed (ssRNA)
RNA: GGGAGUUCUACAGUCCGACGAUCAGGAUGAUAGACGAGGUAUUUGUGAAAGACCUAGGCAGCAAGAAAUUCAUAAAUCUUUUCGAGGUUCCAAUUUUACUGUGGCUCCAAGCGUUGUUAAUUCUGAUAACAGGCGAAUGAGUGCAACAGAGGAUUGAGCAUCA
B12: ENSG00000198589:be:win_1951|CDS|ENSG00000198589|bound_else_gene|NA|bound_elsewhere_windowed (ssRNA)
RNA: GGGAGUUCUACAGUCCGACGAUCAUGCUUUCUCUACGAGCAUUCUUGUUGAUGUUCAUUAAGCAAUUAGUGAUGAAGGAUUCUGGAGUAAAGGAAGAUGAAUUACAGGCCAUUCUUAAUUACCUACUGACUAUGCAUGAGGAUCAACAGAGGAUUGAGCAUCA
B13: chr2:37227669:37227839:-|CDS|ENSG00000115816|unk|FALSE|unique (ssRNA)
RNA: GGGAGUUCUACAGUCCGACGAUCGUUUACUUUUGCUUUUUUCGGACUUGUGUCAAAAAAAAAGAUGUUGAAUCAAAAAUGCUUAGCGCCCUUUUAACAGGUGUGAAUAGGGCAUACCCUUAUUCCCAGACUGGUGAUGACAAACAACAGAGGAUUGAGCAUCA
B14: chr2:65312585:65312700:-|3pUTR|ENSG00000198369|unk|total|mutant (ssRNA)
RNA: GGGAGUUCUACAGUCCGACGAUCUGGACCAGGGCCCGAAUGGGGAUUUCAGGUUUCUAUGAGCCUCCCCAUUACCCCUAAAGCCGAACAUUUUUUAAAUUGUGUUGCCACCACUUCUAAAAAUUCCGCAAUAUCCGAACCGGACAACAGAGGAUUGAGCAUCA
B15: chr8:73241459:73241605:-|CDS|ENSG00000274443|control|control|control (ssRNA)
RNA: GGGAGUUCUACAGUCCGACGAUCUGGCUUCAGUGAUCCUCUCACUGGAGCACCAUCUCAAUACUUAGAGAGACUUUCCAAAAUAGCCAUAUUGGAAUAUGAUACCAUUCGUCAGGAAACAACCACAAAAUCAAAAAAAAGCAACAACAGAGGAUUGAGCAUCA
B16: chr11:27366961:27367062:-|3pUTR|ENSG00000205213|msi1|FALSE|unique (ssRNA)
RNA: GGGAGUUCUACAGUCCGACGAUCUGAAUACUUCCUAAUAUCGUUGGCUCUACUAAUAUUUUCCAAUUUGCUGGGAUGUCACCUAGCAAUAGCUUGGAUUAUAUAGAAAGUAAACUGUGGUCAAUACUUGCAUUUAAUUAGACGCAACAGAGGAUUGAGCAUCA
B17: chr11:73401874:73401975:-|3pUTR|ENSG00000054965|unk|total|mutant (ssRNA)
RNA: GGGAGUUCUACAGUCCGACGAUCUGCAGGGUUUGUCCUUUACUUAUCUGCCCCUUUCCCCGAAAACUCCUCGUUUCUGAAAUCCGGCAUUAUAUGGUUCCAGGACCCAGCCUUCAAAAUUCCUGGCAGGCCAGCUUCAACAUUCAACAGAGGAUUGAGCAUCA
B18: chr1:180885316:180885399:+|3pUTR|ENSG00000143324|msi1_unk|total|mutant (ssRNA)
RNA: GGGAGUUCUACAGUCCGACGAUCUUGGCAGCCAUUUCUCCCAGCAGUUUUAAAGGAUGAACAUUGGAUUUCAUGCCAUCCCACCGAAAACCUGUUUUAAAAUUUCCGGGAUCUUUACUUGGUCAUACAUGAAAAGUACACUGCCAACAGAGGAUUGAGCAUCA
B19: ENSG00000143476:stop:overlap|stop_codon|ENSG00000143476|stop_codon|NA|stop_codon (ssRNA)
RNA: GGGAGUUCUACAGUCCGACGAUCCAUACUUCCAUAGAAAGUCCCAGGAGGACUUCUGUGGUCCUGAACACUCAACAGAAUUAUAGAUUCUAAUCUGAGUGAGUUACUGAGCUUUGGUCCACUAAAACAAGCUGAGCUUUGGUCCAACAGAGGAUUGAGCAUCA
B20: ENSG00000070961:be:win_2101|CDS|ENSG00000070961|bound_else_gene|NA|bound_elsewhere_windowed (ssRNA)
RNA: GGGAGUUCUACAGUCCGACGAUCGGAAUUACUGUGCGGAUGGUCACUGGUGAUAAUAUUAAUACUGCUCGGGCCAUUGCUACCAAAUGUGGUAUUUUACAUCCUGGGGAAGAUUUUCUGUGCCUAGAAGGUAAAGAUUUUAACCAACAGAGGAUUGAGCAUCA
B21: chr1:110340924:110341033:+|CDS|ENSG00000162775|unk|total|mutant (ssRNA)
RNA: GGGAGUUCUACAGUCCGACGAUCUGCUGCCUGGACCCAUAUGCGGGGCUUCCCACUUGGUGGCCCAGAUCGACGCCUCCGAGCCGACUUUGCCGACACCGAACAUCGUUACCAGCAGCAGUAUCUGCAGCCUCUGCCCUUGACCAACAGAGGAUUGAGCAUCA
B22: chr11:75572625:75572772:+|3pUTR|ENSG00000149257|msi1|FALSE|unique (ssRNA)
RNA: GGGAGUUCUACAGUCCGACGAUCUCUGGCGUUGUGGGGAUGAACUUUUUGUUUUGUUUCUUCCUUUUUUAGUUCUUCAAAGAUAGGGAGGGAAGGGGGAACAUGAGCCUUUGUUGCUAUCAAUCCAAGAACUUAUUUGUACAUCAACAGAGGAUUGAGCAUCA

This assay deals with T1, UNK ZnF1-6 (called full-length). The assay is described as follows: nsRBNS (natural sequence RNA bind-n-seq); RBNS binding buffer (assumed for nsRBNS): 25 mM Tris pH 7.5, 150 mM KCl, 3 mM MgCl2, 0.01% Triton X-100, 500 ug/ml BSA, 20 U/ml SUPERase-In, 4 C; UNK is unkempt and MSI1 is Musashi-1; names of the RNAs are library labels; protein concentration not given here; high values mean tight binding.
For B1, the binding signal stood at 0.511 enrichment R.
In the case of B2, the binding signal is 0.252 enrichment R.
Then B3, with 0.246 enrichment R; and B4, with 0.663 enrichment R; and B5, with 0.568 enrichment R.
Consider B6, for which the binding signal is 0.265 enrichment R.
Regarding B7, the binding signal came out at 0.365 enrichment R.
Under B8 stands 1 enrichment R; under B9, 1.34 enrichment R.
Under B10 stands 0.302 enrichment R; under B11, 0.613 enrichment R.
The molecule B12 registered a binding signal of 0.436 enrichment R.
In the case of B13, the binding signal turned out to be 0.294 enrichment R.
Molecule B14 registered a binding signal of 0.534 enrichment R.
In the case of B15, the binding signal is 0.477 enrichment R.
Under B16 stands 0.708 enrichment R; under B17, 0.747 enrichment R; under B18, 0.292 enrichment R.
As to B19, the binding signal came to 0.561 enrichment R.
Then B20, with 0.458 enrichment R; and B21, with 0.673 enrichment R.
B22: the binding signal was 0.937 enrichment R.

The values above are taken from paper PMC12136788.
